# Measurements as given in the supplement of paper PMC8728848.
# Some of the results follow.
# Legend:
# Experiment in all cases: glycan array binding signal (z-score within array); higher = stronger binding
# Settings in all cases: glycan notation: IUPAC condensed, linker removed
# [1] = target: Gal6S(b1-4)Glc
# Summary of the method: (§1)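 Glycan array data came from 3228 arrays in the Consortium for Functional Glycomics database, and only arrays with an available protein sequence were kept. Glycan names were put into IUPAC-condensed notation, and columns mapping to the same glycan were averaged. The binding signal is a within-array Z-score, averaged across arrays of one protein sequence run at different concentrations or buffers and across linkers. A negative Z-score can be read as non-binding.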
# [2] = target: Gal6S(b1-4)Glc6S
# Summary of the method: as §1
# [3] = target: Gal6S(b1-4)GlcNAc
# Summary of the method: as §1
# [4] = target: GalNAc(a1-3)Gal
# Summary of the method: as §1
# [5] = target: GalNAc(a1-3)GalNAc
# Summary of the method: as §1
# [6] = target: GalNAc(b1-3)Gal(a1-4)Gal(b1-4)GlcNAc
# Summary of the method: as §1
# [7] = target: GalNAc(b1-4)GlcNAc
# Summary of the method: as §1
# [8] = target: Glc(a1-4)Glc
# Summary of the method: as §1
# [9] = target: Glc(a1-6)Glc(a1-6)Glc
# Summary of the method: as §1
# [10] = target: Glc(b1-4)Glc
# Summary of the method: as §1
# [11] = target: Glc(b1-6)Glc
# Summary of the method: as §1
# [12] = target: GlcA(b1-3)Gal
# Summary of the method: as §1
# [13] = target: GlcA(b1-6)Gal
# Summary of the method: as §1
# [14] = target: GlcNAc(a1-3)Gal(b1-4)GlcNAc
# Summary of the method: as §1
# [15] = target: GlcNAc(a1-6)Gal(b1-4)GlcNAc
# Summary of the method: as §1
# [16] = target: GlcNAc(b1-2)Gal(b1-3)GlcNAc
# Summary of the method: as §1
# [17] = target: GlcNAc(b1-2)Man(a1-3)[GlcNAc(b1-2)Man(a1-6)]Man(b1-4)GlcNAc(b1-4)GlcNAc
# Summary of the method: as §1
# [18] = target: GlcNAc(b1-3)Gal
# Summary of the method: as §1
# [19] = target: GlcNAc(b1-3)Gal(b1-3)GalNAc
# Summary of the method: as §1
# [20] = target: GlcNAc(b1-3)Gal(b1-4)Glc
# Summary of the method: as §1
# [21] = target: GlcNAc(b1-3)Gal(b1-4)GlcNAc
# Summary of the method: as §1
# [22] = target: GlcNAc(b1-3)Gal(b1-4)GlcNAc(b1-3)Gal(b1-4)GlcNAc
# Summary of the method: as §1
# [23] = target: GlcNAc(b1-3)GalNAc
# Summary of the method: as §1
# [24] = target: GlcNAc(b1-3)[GlcNAc(b1-4)][GlcNAc(b1-6)]GlcNAc
# Summary of the method: as §1
# [25] = target: GlcNAc(b1-3)[GlcNAc(b1-6)]Gal(b1-4)GlcNAc
# Summary of the method: as §1
# [26] = target: GlcNAc(b1-3)[GlcNAc(b1-6)]GlcNAc
# Summary of the method: as §1
# [27] = target: GlcNAc(b1-4)Gal(b1-4)GlcNAc
# Summary of the method: as §1
# [28] = target: GlcNAc(b1-4)GlcNAc(b1-4)GlcNAc
# Summary of the method: as §1
# [29] = target: GlcNAc(b1-4)GlcNAc(b1-4)GlcNAc(b1-4)GlcNAc(b1-4)GlcNAc
# Summary of the method: as §1
# [30] = target: GlcNAc(b1-4)GlcNAc(b1-4)GlcNAc(b1-4)GlcNAc(b1-4)GlcNAc(b1-4)GlcNAc
# Summary of the method: as §1
# [31] = target: GlcNAc(b1-4)[GlcNAc(b1-6)]GalNAc
# Summary of the method: as §1
# [32] = target: GlcNAc(b1-6)Gal(b1-4)GlcNAc
# Summary of the method: as §1
# [33] = target: GlcNAc(b1-6)GalNAc
# Summary of the method: as §1
# [34] = target: Kdn(a2-3)Gal(b1-3)GlcNAc
# Summary of the method: as §1
# [35] = target: Kdn(a2-3)Gal(b1-4)GlcNAc
# Summary of the method: as §1
# [36] = target: Man(a1-2)Man(a1-2)Man(a1-3)Man
# Summary of the method: as §1
# [37] = target: Man(a1-2)Man(a1-2)Man(a1-3)[Man(a1-2)Man(a1-3)[Man(a1-2)Man(a1-6)]Man(a1-6)]Man(b1-4)GlcNAc(b1-4)GlcNAc
# Summary of the method: as §1
# [38] = target: Man(a1-2)Man(a1-2)Man(a1-3)[Man(a1-2)Man(a1-6)[Man(a1-3)]Man(a1-6)]Man(b1-4)GlcNAc(b1-4)GlcNAc
# Summary of the method: as §1
# [39] = target: Man(a1-2)Man(a1-2)Man(a1-6)[Man(a1-3)]Man
# Summary of the method: as §1
# [40] = target: Man(a1-2)Man(a1-3)Man
# Summary of the method: as §1
# [41] = target: Man(a1-2)Man(a1-3)[Man(a1-2)Man(a1-6)]Man
# Summary of the method: as §1
# [42] = target: Man(a1-2)Man(a1-3)[Man(a1-3)[Man(a1-6)]Man(a1-6)]Man(b1-4)GlcNAc(b1-4)GlcNAc
# Summary of the method: as §1
# [43] = target: Man(a1-2)Man(a1-3)[Man(a1-6)]Man(a1-6)[Man(a1-2)Man(a1-3)]Man(b1-4)GlcNAc(b1-4)GlcNAc
# Summary of the method: as §1
# [44] = target: Man(a1-3)[Man(a1-6)]Man
# Summary of the method: as §1
# [45] = target: Man(a1-3)[Man(a1-6)]Man(a1-6)[Man(a1-3)]Man(b1-4)GlcNAc(b1-4)GlcNAc
# Summary of the method: as §1
# [46] = target: Man(a1-3)[Man(a1-6)]Man(b1-4)GlcNAc(b1-4)GlcNAc
# Summary of the method: as §1
# [47] = target: Man(b1-4)GlcNAc
# Summary of the method: as §1
# [48] = target: Neu5Ac(a2-3)Gal
# Summary of the method: as §1
# [49] = target: Neu5Ac(a2-3)Gal(b1-3)GalNAc
# Summary of the method: as §1
binder,measurement,setting,value
ASA (Allium sativum) (protein) KAHEKERMGRNTPSAKLMSIAAVAAILTILASTCMARNLLTNGEGLYAGQSLNVEPYHFIMQEDCNLVLYDHSTAVWATNTDIPGKKECRAVLQSDGNFVVYDADGRPLWASHSVRGNGNYVLVLQEDGNVVIYGSDIWSTGTYVKAARGPVVVAMNGTVDGGSLIRPVIVNKNHVPVIRKVGTLSRNILRNDEGLYAGQSLDVEPYHFIMHEDCNLVLYDHSTAVWASNTDIPGKKGCKAVLQSDGNFVVYDAEGRSLWASHSVRGNGNYVLVLQEDGNVVIYGSDIWSTDTYRKSARGPVIRKVGTLAGAA,glycan array binding signal (z-score),[1],-0.201
same,glycan array binding signal (z-score),[2],-0.199
same,glycan array binding signal (z-score),[3],-0.191
same,glycan array binding signal (z-score),[4],-0.197
same,glycan array binding signal (z-score),[5],-0.22
same,glycan array binding signal (z-score),[6],-0.2
same,glycan array binding signal (z-score),[7],-0.151
same,glycan array binding signal (z-score),[8],-0.227
same,glycan array binding signal (z-score),[9],-0.228
same,glycan array binding signal (z-score),[10],-0.209
same,glycan array binding signal (z-score),[11],-0.234
same,glycan array binding signal (z-score),[12],-0.212
same,glycan array binding signal (z-score),[13],-0.218
same,glycan array binding signal (z-score),[14],-0.228
same,glycan array binding signal (z-score),[15],-0.222
same,glycan array binding signal (z-score),[16],-0.222
same,glycan array binding signal (z-score),[17],-0.204
same,glycan array binding signal (z-score),[18],-0.224
same,glycan array binding signal (z-score),[19],-0.204
same,glycan array binding signal (z-score),[20],-0.216
same,glycan array binding signal (z-score),[21],-0.23
same,glycan array binding signal (z-score),[22],-0.23
same,glycan array binding signal (z-score),[23],-0.234
same,glycan array binding signal (z-score),[24],-0.115
same,glycan array binding signal (z-score),[25],-0.227
same,glycan array binding signal (z-score),[26],-0.175
same,glycan array binding signal (z-score),[27],-0.221
same,glycan array binding signal (z-score),[28],-0.19
same,glycan array binding signal (z-score),[29],-0.207
same,glycan array binding signal (z-score),[30],-0.185
same,glycan array binding signal (z-score),[31],-0.223
same,glycan array binding signal (z-score),[32],-0.21
same,glycan array binding signal (z-score),[33],-0.215
same,glycan array binding signal (z-score),[34],-0.223
same,glycan array binding signal (z-score),[35],-0.22
same,glycan array binding signal (z-score),[36],6.7
same,glycan array binding signal (z-score),[37],1.51
same,glycan array binding signal (z-score),[38],2.52
same,glycan array binding signal (z-score),[39],3.68
same,glycan array binding signal (z-score),[40],0.036
same,glycan array binding signal (z-score),[41],2.2
same,glycan array binding signal (z-score),[42],6.08
same,glycan array binding signal (z-score),[43],3.02
same,glycan array binding signal (z-score),[44],0.312
same,glycan array binding signal (z-score),[45],5.45
same,glycan array binding signal (z-score),[46],6.64
same,glycan array binding signal (z-score),[47],-0.218
same,glycan array binding signal (z-score),[48],-0.215
same,glycan array binding signal (z-score),[49],-0.201
